Laboratory results from PubChem BioAssay AID624296 (National Center for Advancing Translational Sciences (NCATS), 2012).
The whole screen tested about 350,000 compounds, of which about 9,900 (2.8%) were called active. The shares of active, inactive and inconclusive entries below differ from those in the screen. The call rests on the fitted dose curve; in most records, active means well fitted activation curve with a large enough effect; inconclusive means small, poorly fitted or top-dose-only effect; inactive means no such curve, though single readings can be large or run the other way. No potency is given beside an inconclusive call; the fits are too rough.

assay: A quantitative high throughput screen for small molecules that induce DNA re-replication in MCF 10a normal breast cells.; further: nearly all actives have a fitted effect of over 50% in size; on activity, positive = re-replication: % of control where 0% means no effect; details: MCF 10A DNA re-replication, Hoechst nuclear intensity, 48 h; activity, positive = re-replication: at 46.1 µM (top of the series)
Potency means the concentration at half of the fitted maximal effect; tags describe the fitted curve by direction and shape.

Compound | Potency | activity, positive = re-replication
O=C(CSc1nnnn1-c1ccccc1)CC(=O)Nc1ccc(Cl)cc1 | inconclusive [activator, full curve, poor fit] | 
CCCc1c(O)nc(SCC(=O)NCc2ccco2)[nH]c1=O | inactive | 
Cc1c(C)c2ccc(OCC(=O)N3CCN(C(=O)C4COc5ccccc5O4)CC3)cc2oc1=O (stereo not given) | inactive | 
CN(Cc1ccccc1F)C(=O)c1ccc(Oc2ccccc2)cc1 | inactive | 
C(=N\Nc1nc(Nc2ccccc2)nc(N2CCOCC2)n1)/c1c[nH]c2ccccc12 | active: 16.4 µM | 
CCCn1nnc(NC(=S)NC(=O)c2ccc(-c3ccc(Br)cc3)o2)n1 | inactive | 
CCc1ccc(OCCCC(=O)NCc2ccccc2)cc1 | inconclusive [activator, single point] | 
Cc1cc(Nc2ccc(Br)cc2)nc(-c2ccccc2O)n1 | inconclusive [activator, single point] | 
O=C(N/N=C/C(Br)=C\c1ccccc1)c1ccc2nc[nH]c2c1 | active: 23.1 µM | 
COc1cccc(/C=N/n2nnnc2N)c1O | inactive | 
O=[N+]([O-])c1ccccc1S(=O)(=O)Oc1ccccc1/C=N/n1cnnc1 | inconclusive [activator, partial curve, poor fit] | 
O=C(O)C1CC=C(Cl)CC1C(=O)NCc1ccccc1 (stereo not given) | inconclusive [activator, partial curve, poor fit] | 
CCOC(=O)c1cnc(SCc2nc(N)nc(Nc3ccc(C)cc3)n2)nc1N | active: 10.3 µM | 
Cc1nnc(SCC(=O)NCC2COc3ccccc3O2)s1 (stereo not given) | inactive | 
CCC(=O)c1ccc(Oc2ccc(C(=O)c3ccc(C)cc3)cc2[N+](=O)[O-])cc1 | inconclusive [activator, full curve] | 
CCCCNC(=O)CCC(=O)Nc1ccc2nc(N3CCOCC3)cc(C)c2c1 | inactive | 
CN(C)c1ccc(NC(=O)c2cn(-c3ccccc3)nc2-c2cccs2)cc1 | inactive | 
O=C(CN1C(=O)NC2(CCCCC2)C1=O)NCCC1=CCCCC1 | inconclusive [activator, partial curve, poor fit] | 
NC(=O)C(c1ccc(Br)cc1)c1ccc(C(=O)c2ccccc2)cc1 (stereo not given) | inconclusive [activator, single point] | 
Cn1nnc2cc(C(=O)N3CCN(c4ccccc4)CC3)ccc21 | inactive | 
CCC(=NCCc1c(C)[nH]c2ccc(C)cc12)C1=C(O)CC(c2ccccc2)CC1=O (stereo not given) | inconclusive [activator, partial curve, poor fit] | 
Cc1ccc(S(=O)(=O)Nc2ccccc2F)cc1C(=O)NNC(=O)c1ccccc1O | inactive | 
COc1ccc(OC)c(Nc2ncnc3c2cnn3-c2cccc(C)c2)c1 | inconclusive [activator, partial curve, poor fit] | 
CN(Cc1ccccc1N1CCCC1)C(=O)c1cc2ccccc2o1 | inconclusive [activator, single point] | 

Compound | Potency | activity, positive = re-replication
Cc1ccc(SCC(=O)Nc2ccc(N3CCN(C)CC3)c(F)c2)cc1 | inconclusive [activator, partial curve, poor fit] | 
CC(C)N1C(=O)CCC1C(=O)N1CCN(c2ccc(F)cc2)CC1 (stereo not given) | inconclusive [activator, single point] | 
O=C(C1=C[C@H](c2ccccc2)C[C@H](OCc2ccc(CO)cc2)O1)N1CCN(Cc2ccc3c(c2)OCO3)CC1 | inconclusive [activator, single point] | 
CCCCCn1c(CN2CCCCC2C)nc2c1c(=O)n(C)c(=O)n2C (stereo not given) | inconclusive [activator, partial curve, poor fit] | 
COC(=O)c1c(-c2ccc(OC)cc2)sc2ccc(N3CCOCC3)cc12 | inactive | 
Cc1ccc2c(CC(=O)NNC(=O)c3ccccc3O)coc2c1 | inactive | 
O=C1[C@H](Cc2ccccc2)NCCCC[C@H](c2ccc(Cl)cc2)N1Cc1ccc(Cl)cc1 | inconclusive [activator, partial curve, poor fit] | 
O=C(NNc1cc(N2CCOCC2)nc(N2CCOCC2)n1)C12CC3CC(CC(C3)C1)C2 | inactive | 
C/C=C/c1c(F)c(F)c(Oc2ccc(C(=O)O)cc2)c(F)c1F | inconclusive [activator, partial curve, poor fit] | 
CCOc1ccc2[nH]c3c(N4CCN(C(=O)c5ccco5)CC4)ncnc3c2c1 | inconclusive [activator, single point] | 
COc1ccc(C2CC(c3ccncc3)=NN2c2ccc(S(N)(=O)=O)cc2)cc1 (stereo not given) | active: 2.91 µM | 
CCS(=O)(=O)Nc1ccc(C2=NN(C(C)=O)C(c3cccs3)C2)cc1 (stereo not given) | active: 9.2 µM | 
Cc1cc(N(CCO)CCO)ccc1C(c1ccc(N(CCO)CCO)cc1C)c1ccccc1Cl | inconclusive [activator, single point] | 
O=C(Nc1ccc(C(=O)N2CCOCC2)cc1)C1CCC1 | inactive | 
CCOC(=O)c1c(CSc2ccccc2)n(C)c2ccc(O)c(CN3CCOCC3)c12 | inactive | 
Cc1cc(C)nc(SCCn2c(N3CCOCC3)nc3c2c(=O)[nH]c(=O)n3C)n1 |  | inactive: -22.8% [at 9.22 µM]
O=[N+]([O-])c1ccc(N(c2ccccc2)c2ccccc2)cc1 | inconclusive [activator, single point] | 
CCCN1CCc2c(sc(NC(=O)CCS(=O)(=O)c3ccccc3)c2C(=O)OC)C1 | active: 18.4 µM | 
N#CC1=C(N)Oc2n[nH]c(-c3cccs3)c2C1C1C=CCCC1 (stereo not given) | inactive | 
CN(C)c1ccc(CN(C(=O)COc2ccc(Br)cc2)C2CCS(=O)(=O)C2)cc1 (stereo not given) | inactive | 
CC(=O)c1ccc([C@H]2C[C@@]34CN(C(=O)OC(C)(C)C)S(=O)(=O)[C@H]3C[C@H]2O4)cc1 | inconclusive [activator, full curve, poor fit] | 
O=c1cc(-c2ccccc2)nc(Sc2ccc([N+](=O)[O-])cc2[N+](=O)[O-])[nH]1 | inconclusive [activator, partial curve, poor fit] | 
CC1(c2ccc(Cl)cc2)NC(=O)N(CC(=O)Nc2cccnc2Cl)C1=O (stereo not given) | inconclusive [activator, single point] | 
N#Cc1c(-c2ccc(Cl)cc2)cc(-c2cccs2)nc1SCC(=O)O | active: 23.1 µM | 

Compound | Potency | activity, positive = re-replication
O/N=C(\c1ccc(Cl)cc1Cl)c1ncc(C(F)(F)F)cc1Cl | inconclusive [activator, single point] | 
CN1C(=S)N(c2ccccc2)C(=O)/C1=C/c1ccco1 | inconclusive [activator, partial curve] | 
CCCCOC(=O)c1ccc(NC(=O)C(=O)NCCN(CC)CC)cc1 | inconclusive [activator, single point] | 
COc1ccc(COc2ccsc2C(=O)Nc2ccc(Cl)c(Cl)c2)cc1 | active: 18.4 µM | 
CCOc1ccccc1NC(=O)Nc1ccon1 | inconclusive [activator, single point] | 
Cc1ccc(C)c(NC(=O)Cn2cc(C(=O)C3CC3)c3ccccc32)c1 | inconclusive [activator, single point] | 
N=c1n(CCCOc2ccc(Br)cc2)c2ccccc2n1CC(N)=O | inactive | 
COc1ccc(CCN(C)C(=O)c2cc(-c3ccc(C)cc3)nc3ccccc23)cc1OC | inconclusive [activator, single point] | 
O=C1C=C(c2ccc(Cl)c(C(F)(F)F)c2)C[C@@H](c2ccc3c(c2)OCO3)C1 | inactive | 
Cc1nnc(SCC(=O)n2c3c(c4ccccc42)CCCC3)s1 | inconclusive [activator, partial curve, poor fit] | 
COc1ccc(-c2cc(=O)oc3cc(OC(=O)C4CCCCC4)ccc23)cc1 | inconclusive [activator, single point] | 
Cc1ccc(S(=O)(=O)NC(C)(C)CSc2ncccn2)cc1 | inconclusive [activator, partial curve, poor fit] | 
N#Cc1c(C(F)(F)F)cc(=O)n2c1[nH]c1ccccc12 | active: 18.4 µM | 
CC(/C=C/c1ccccc1)=N/NC(=O)CNC(=O)c1ccc2c(c1)OCO2 | inconclusive [activator, single point] | 
CN1CCN(C(=O)/C=C/c2cn(-c3ccccc3)nc2-c2ccc3c(c2)OCCO3)CC1 | inconclusive [activator, single point] | 
COc1cccc(NC(=S)/C(=C(\[O-])c2ccc(OC(F)F)cc2)[n+]2ccccc2)c1 | inconclusive [activator, full curve, poor fit] | 
COCCn1c(N)c(C#N)c2nc3ccccc3nc21 | inconclusive [activator, partial curve, poor fit] | 
Cc1sc2nc(CSc3nnc(Cc4cccs4)n3C3CCCCC3)[nH]c(=O)c2c1C | inactive | 
O=C(COc1ccccc1)NCC(c1ccco1)N1CCCCC1 (stereo not given) | inactive | 
Cc1ccc(-c2csc(/C=C3\SC(C)C(=O)N3CC(=O)Nc3ccccc3F)n2)cc1 (stereo not given) | active: 18.4 µM | 
Cc1nc(-c2ccc(C#N)cc2)cs1 | inactive | 
COc1ccc([C@@H]2CC=C(C(=O)O)[C@H](c3ccccc3)N2S(=O)(=O)c2ccc(C)cc2)cc1OC | inconclusive [activator, partial curve, poor fit] | 
